Data on 172 sequences can be found in PMC4242493.

This is one part of the list. The list includes weakly bound sequences.

For this assay, the target named is MaxL homodimer (UniProt P61244). In words: universal protein-binding microarray (PBM). The note with it: PBS-based mixture, 10 nM His-tagged protein dimer, 2% milk, 200 ng/uL BSA, 50 ng/uL salmon testes DNA, 0.02% TX-100; detection with Alexa 488 anti-His …; high values mean tight binding; most listed sequences are background and not binding sites; double strand, one strand shown.
Chain of UniProt P61244 (P61244 whole entry): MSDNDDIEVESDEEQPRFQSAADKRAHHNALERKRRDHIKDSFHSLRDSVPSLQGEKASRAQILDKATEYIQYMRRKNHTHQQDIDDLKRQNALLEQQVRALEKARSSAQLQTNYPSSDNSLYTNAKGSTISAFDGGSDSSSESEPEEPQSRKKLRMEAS
For AGTAAGCC, the binding signal (normalized occupancy) was determined as 0.0703. The result for CCAGCCTC reads 0.0759; that for ATGGCGCC, 0.0751; that for AATCGTAT, 0.0799.

As to GACGAAGC, the binding signal (normalized occupancy) came to 0.0723. The result for CTGCCGAC reads 0.0704; that for CTGATCCA, 0.0828; that for CGTGAAAG, 0.0855. Under CTACCACC stands 0.0824; under ACACTCCC, 0.0794. Under CGCGACAC stands 0.0749; under AGGAACGA, 0.0744.

AGTATTCA: the binding signal (normalized occupancy) was found to be 0.0798. Under AAATGAGT stands 0.079; under CTAGCCAA, 0.0693. The result for GCCTTTAA reads 0.0723. The result for AGTGACGC reads 0.0753. For AGGGAATC, the binding signal (normalized occupancy) was found to be 0.0755. The result for AAGCCCGT reads 0.0737. GCCTACCC: the binding signal (normalized occupancy) worked out at 0.0797. Regarding ATATGTCC, the binding signal (normalized occupancy) was found to be 0.0855.

For GCATAATA, the binding signal (normalized occupancy) was 0.0803. Take GCACGGAC: the binding signal (normalized occupancy) was determined as 0.0746. Turning to GAGACCAA, the binding signal (normalized occupancy) is 0.0679. Under CCGATTAA stands 0.0728; under ACACCTCT, 0.0739; under CCCCACAG, 0.0785.

As to ATGGGCTG, the binding signal (normalized occupancy) came to 0.0762. Under CTCTGTCA stands 0.0747. The result for GTCGGTCA reads 0.0724. The result for CGCTGACC reads 0.069; that for CGGCTTAG, 0.0692. ACCGACAA: the binding signal (normalized occupancy) came out at 0.0767. The result for GAACGGTC reads 0.0707.

Consider ACTTCCTG, for which the binding signal (normalized occupancy) was 0.0713. On to AATCGTGC, for which the binding signal (normalized occupancy) is 0.0839.

In the case of ACAGCGGC, the binding signal (normalized occupancy) amounted to 0.0731. Under CCGCGAGC stands 0.0693; under AAAACTAA, 0.073. The result for CAACGACC reads 0.0709.

For AGCTTCCT, the binding signal (normalized occupancy) stood at 0.0666. Under GAGAATAA stands 0.0755. The result for AGGAAAAG reads 0.0736. As for CACTCTTA, the binding signal (normalized occupancy) was found to be 0.0778. The result for CGTTGACC reads 0.0795. Under AGGGGTTC stands 0.0749; under ACAATTGC, 0.0792; under GGTGATGA, 0.0784. The result for CGATCTAC reads 0.0779; that for ATCTGTTG, 0.0749. Consider CTCTACGC, for which the binding signal (normalized occupancy) stood at 0.0747.

With GCGTCCTA, the binding signal (normalized occupancy) turned out to be 0.0734. Under CCTTTATA stands 0.0822. Under CCTGAGCC stands 0.0719; under CCTACCGC, 0.0703; under CCCTTCCA, 0.0717.

For the sequence CGACGGAA, the binding signal (normalized occupancy) is 0.069. Under AGTATTGC stands 0.0781. Under AAAGATAG stands 0.0726; under GAAGGTGC, 0.0733; under ATTTATAG, 0.0799. Under AATGATAC stands 0.0763; under GCAGCACA, 0.0778; under GTCGTTAA, 0.0738. TAAATCAA: the binding signal (normalized occupancy) was 0.0716. Under GAGGCCTA stands 0.075.

Take CTAAGCAG: the binding signal (normalized occupancy) was found to be 0.0671. Under GCAAGGGA stands 0.0715; under ACATCGTG, 0.0998; under AATCTAGC, 0.0807. Under TCGAATCA stands 0.075; under CATAGAGA, 0.074. Under ACCGAAGA stands 0.0716. GTAGAGGA: the binding signal (normalized occupancy) was determined as 0.0732. The result for CGGGCAGA reads 0.069; that for CTACTGCC, 0.0744. Under GACTTTTA stands 0.0753. Turning to CTCGATCC, the binding signal (normalized occupancy) came out at 0.0727. Take AAATCTTC: the binding signal (normalized occupancy) stood at 0.0711.

In the case of AGGCTACA, the binding signal (normalized occupancy) worked out at 0.0725. The result for ATCAAATG reads 0.0776.

On to CACGGAAG, for which the binding signal (normalized occupancy) was 0.0721.

Turning to AATATGTG, the binding signal (normalized occupancy) is 0.0882. The result for ACATTCTG reads 0.083; that for GTCGGATA, 0.0771. Under CAGGCGGA stands 0.0767. The result for CACACCAC reads 0.0917. In the case of CCCTACCA, the binding signal (normalized occupancy) was 0.0813. Under GCGCAAGA stands 0.0685. The result for GGAGCCCC reads 0.068; that for TCATTCCA, 0.0776; that for CTACTCGA, 0.0717.

In the case of CCCGTGCA, the binding signal (normalized occupancy) stood at 0.0874. Under AGCTCCCA stands 0.0706; under GACACAAC, 0.0744; under GCCTATGA, 0.0799. As for AGACGGAA, the binding signal (normalized occupancy) came out at 0.0698. GTCATCTA: the binding signal (normalized occupancy) amounted to 0.0772. Under ATACCGTA stands 0.074; under CAGAGCTC, 0.0676; under GCAATATA, 0.0786.

Take GCGTTAGA: the binding signal (normalized occupancy) turned out to be 0.0731.

Regarding AGTCTAAC, the binding signal (normalized occupancy) stood at 0.0768.

On to CTTTAAGC, for which the binding signal (normalized occupancy) is 0.0686. The result for AGGATCAC reads 0.086; that for GATCCCGA, 0.0744; that for CGTACTTA, 0.0765. In the case of GCTGTAGA, the binding signal (normalized occupancy) was found to be 0.0741. As for CGCGCGAA, the binding signal (normalized occupancy) is 0.075.

Regarding GCTATGTA, the binding signal (normalized occupancy) amounted to 0.0774. The result for CTTCCTAC reads 0.0696; that for CGCGGAGA, 0.0679; that for CGACTACC, 0.0729. The result for GCCCAAGC reads 0.0692; that for TCCAAGGA, 0.0679. The result for CATGACGA reads 0.0829; that for TGAGGCAA, 0.0764; that for CACGGGGC, 0.0863. As to ACCACACG, the binding signal (normalized occupancy) is 0.0972. On to GGGATGCA, for which the binding signal (normalized occupancy) amounted to 0.0857. Regarding CTGGCGGA, the binding signal (normalized occupancy) was determined as 0.0747. As for ACACCTAC, the binding signal (normalized occupancy) came to 0.0802. Under AACCTATC stands 0.0788; under ATATGAGC, 0.0845; under TACTAGTA, 0.07. Under CTCCGATA stands 0.0722; under GGAATGGA, 0.0781; under CCTCTAGA, 0.0678.

For the sequence GTGGTCGA, the binding signal (normalized occupancy) worked out at 0.0832.

With ACGTAGCG, the binding signal (normalized occupancy) is 0.0805. The result for CAACAGCC reads 0.0719; that for GGCTGCTA, 0.071. Under ACGAATTG stands 0.0751. For GCACGAAC, the binding signal (normalized occupancy) is 0.0828. Under AATTGAAT stands 0.0745. AAGCCACC: the binding signal (normalized occupancy) stood at 0.072. Under GACCGGAC stands 0.0704; under GGCCAAGA, 0.0669. Under GATGCCAA stands 0.075; under AAGCATTA, 0.082. The result for CATTTAAA reads 0.0776. As for AGGAAAAT, the binding signal (normalized occupancy) came out at 0.0788. In the case of CCCTCCCA, the binding signal (normalized occupancy) was found to be 0.0828. Regarding ACCACGAC, the binding signal (normalized occupancy) was 0.0788. The result for GCAAGCTA reads 0.0719; that for TGCACGAA, 0.0777; that for GTCAGGAA, 0.0726.

In the case of AGTAGGCG, the binding signal (normalized occupancy) was 0.0726. Take CAAACTTA: the binding signal (normalized occupancy) was determined as 0.074.

Take CATCTCAA: the binding signal (normalized occupancy) came out at 0.0793. Under TGCTGGAA stands 0.0708.

For the sequence AAGTATAC, the binding signal (normalized occupancy) stood at 0.0794.

As to ACACGCAT, the binding signal (normalized occupancy) is 0.0976. Under AGATTAAC stands 0.074. Regarding CGTGGAGC, the binding signal (normalized occupancy) came out at 0.0913. The result for ACCTAACT reads 0.0715; that for CCACGTAA, 0.0803; that for CACCGGGA, 0.0779. The result for ACAGCACC reads 0.0748. Under AGGCCCTC stands 0.073. With AGCCATCG, the binding signal (normalized occupancy) was found to be 0.0774. Regarding TCTTGTAA, the binding signal (normalized occupancy) is 0.0718. The result for GTGTACGA reads 0.0781. As to AAGATATA, the binding signal (normalized occupancy) is 0.0814. Consider CGTGCCCC, for which the binding signal (normalized occupancy) came out at 0.0814.

Take GAGATAAC: the binding signal (normalized occupancy) was 0.0767. The result for TAGCTATA reads 0.0777; that for TCGCGACA, 0.0724. Under CGGCAGTC stands 0.07. The result for CCGACCCC reads 0.081. With CAGATTCG, the binding signal (normalized occupancy) turned out to be 0.0801. Under CTTCCTCA stands 0.0751.
